Reference: PubChem BioAssay AID651820 (National Center for Advancing Translational Sciences (NCATS), 2012)
About 12,000 (3.5%) of roughly 340,000 compounds were called active. The shares of active, inactive and inconclusive entries below differ from those in the screen. Calls follow the shape of the dose curve; as a rule, active = well fitted inhibition curve with a large enough effect; inconclusive = small, poorly fitted or top-dose-only effect, or another doubt; inactive = no such curve, though single readings can be large or run the other way. No potency is given beside an inconclusive call; the fits are too rough.

Assay: qHTS Assay for Inhibitors of Hepatitis C Virus (HCV)
Conditions: Huh7.5.1 HCVcc-Cre (HCVcc is cell-culture hepatitis C virus) infection, luciferase reporter, 44 h; activity change, negative = inhibition: at 41.8 µM (top of the series)
In short: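 Reporter virus HCVcc-Cre (~0.5 moi) infects cells exposed to compound; seeding density 1,000 cells/well with 4 h settling beforehand. Luminescence, 15 sec read, taken 44 h post-infection following a 15 min RT substrate incubation.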
% is scaled to controls: 0 for no effect and ±100 for the full control effect; potency is read from the fitted curve at half-maximal effect; tags tell the direction and shape of the fitted curve.

Structure (SMILES)	Potency	activity change, negative = inhibition
FC(F)(F)COc1nc(N/N=C/c2cccnc2)nc(N2CCCCC2c2ccccn2)n1 (stereo unspecified)	inconclusive [inhibitor, single point]	
c1ccc(C[C@H]2CN=C(Nc3ccccc3)N2CC2CCC2)cc1		inactive: -19.3%
O=S(=O)(c1ccccc1)N1CCN(c2nc(-c3cccs3)nc3ccccc23)CC1		inactive: 4.26%
CC(C)(CN=C1NS(=O)(=O)c2ccccc21)CNC(=O)CN1C(=O)c2ccccc2C1=O		inactive: 7.46%
COc1ccc(Cl)cc1C(=O)CSc1nnnn1C1CCCC1	inconclusive [inhibitor, single point]	
CCC(=O)Nc1cc(NC(=O)CSc2ncc(-c3ccc(F)cc3)n2Cc2ccco2)ccc1C	inconclusive [inhibitor, single point]	
CN(C)CCCNc1nc(-c2ccc(Cl)cc2)nc2ccccc12	inconclusive [inhibitor, single point]	
Oc1ccc(/C=N/Nc2cc(N3CCCC3)nc(N3CCCC3)n2)cc1O	inconclusive [inhibitor, partial curve]	
COc1ccc(C(=O)OCC(=O)c2ccc[nH]2)c(OC)c1	inconclusive [inhibitor, single point]	
OCCOCCNc1ncnc2c1cnn2-c1ccc(Cl)cc1		inactive: -1.77%
O=C(Nc1cccc([N+](=O)[O-])c1)c1ccc2ccccc2c1O	inconclusive [inhibitor, partial curve]	
CCOP(=O)(CC(C(C)=O)C(O)c1ccccc1)OCC (stereo unspecified)	inconclusive [inhibitor, single point]	
CS(=O)(=O)Cc1ccc(C(=O)NNC(=O)c2cc(-c3ccccc3)n[nH]2)cc1		inactive: 29.7%
Cc1ccc2nc(C3CCCCC3)[nH]c2c1		inactive: 3.35%
CCN(CC)c1ccc(NC(=O)COc2ccccc2C#N)cc1S(=O)(=O)Nc1ccccc1OC	inconclusive [inhibitor, full curve, poor fit]	
C[C@H](CO)N1C[C@H](C)[C@@H](CN(C)C(=O)Nc2ccccc2)Oc2ccc(NC(=O)c3ccncc3)cc2C1=O		inactive: 19.9%
CS(=O)(=O)Nc1nnc(SCC(=O)N(c2ccccc2)c2ccccc2)s1		inactive: 3.57%
CC1CCCC(C)N1C(=S)NCc1ccco1 (stereo unspecified)	inconclusive [inhibitor, full curve, poor fit]	
CCCC(=O)NC(c1ccccc1OC)c1ccc2cccnc2c1O (stereo unspecified)	active: 3.55 µM	
Cc1cccc(N2CCN(C(=O)CCC(=O)N3CC(C)Oc4ccccc43)CC2)c1C (stereo unspecified)	inconclusive [inhibitor, single point]	
S=C(Nc1ccc(CN2CCCCC2)cc1)Nc1cccc(Cl)c1Cl	inconclusive [inhibitor, full curve]	
NC[C@@H]1O[C@H](C23CC4CC(CC(C4)C2)C3)Cc2c1ccc(O)c2O		inactive: 6.43%
O=c1nc(N/N=C/c2ccccn2)cn[nH]1	inconclusive [inhibitor, single point]	
Cc1nn(C)c(Cl)c1S(=O)(=O)N[C@@H](c1ccccc1)[C@]1(C)C[C@H]1[C@@H](C)C(=O)Nc1ccc2ccccc2c1	inconclusive [inhibitor, partial curve, poor fit]	

Structure (SMILES)	Potency	activity change, negative = inhibition
CC(C)Cn1c(-c2ccco2)n[nH]c1=S	inconclusive [inhibitor, single point]	
Cc1cc(OCC(=O)N2CCc3ccccc3C2)c2c(-c3ccccc3)cc(=O)oc2c1	inconclusive [inhibitor, single point]	
CCCc1nn(C)c(C(=O)Nc2cccc(CC)c2)c1Cl	inconclusive [inhibitor, single point]	
O=C(NN=Cc1ccccc1)NN=Cc1ccccc1		inactive: -3.66%
O=C(c1cc2c(s1)-c1ccccc1S(=O)(=O)C2)N1CCCC1		inactive: 1.01%
CN1C=CC=C/C1=C1\SC(=S)N(c2ccccc2)C1=O	inconclusive [inhibitor, single point]	
O=Cc1ccc2noc(-c3ccc(Cl)cc3)c2c1	inconclusive [inhibitor, single point]	
Cc1nc(-c2ccccc2)sc1-c1nc(-c2cccnc2)ncc1S(=O)(=O)c1ccccc1	inconclusive [inhibitor, single point]	
CCCOP(=O)(c1ccccc1)c1ccccc1		inactive: -10.5%
CCSc1ccccc1C(=O)NCc1ccc2c(c1)OCO2	inconclusive [inhibitor, single point]	
Cc1cc(-c2nnc(CCC(=O)NC(C)c3ccccc3Cl)o2)no1 (stereo unspecified)		inactive: 10.6%
O=[N+]([O-])/C(C(Cl)=C(Cl)Cl)=C(/NC1CC1)Sc1ccccc1		inactive: 16.2%
COc1cccc(Nc2nc(-c3sc(C)nc3C)cs2)c1	active: 5.01 µM	
Cc1ccccc1NC(=S)NNC(=O)c1csc2c1CCC(C)C2 (stereo unspecified)	inconclusive [inhibitor, single point]	
Cc1ccc2c(C)nc(Nc3nc(CSc4nc5ccccc5s4)cc(=O)[nH]3)nc2c1	inconclusive [inhibitor, full curve]	
CC1Cc2ccccc2N1S(=O)(=O)c1cccc(C(=O)NCc2ccncc2)c1 (stereo unspecified)	inconclusive [inhibitor, partial curve]	
CCC1S/C(=N/N=C/c2ccco2)N(Cc2ccccc2C)C1=O (stereo unspecified)	inconclusive [inhibitor, partial curve]	
CC(C)(C)NC(=O)C(c1ccncc1)N(C(=O)Cn1nnc(-c2ccc(F)cc2)n1)c1ccccc1F (stereo unspecified)		inactive: 7.01%
Cn1c(/C(C#N)=C(\O)c2cccc(F)c2)nc2ccccc21		inactive: -13.4%
FC(F)(F)c1ccccc1NC(=S)N/N=C1\CC2CC=CC12 (stereo unspecified)	inconclusive [inhibitor, single point]	
CCOc1cccc2sc(Nc3nc4ccc(NC(C)=O)cc4s3)nc12	active: 4.47 µM	
CCOc1cc(/C=C2/C(=O)ON=C2C)ccc1OCc1ccccc1F	inconclusive [inhibitor, single point]	
COc1ccc(C(=O)N/N=C/c2cc3ccccc3[nH]c2=S)cc1		inactive: -7.9%
Cc1ccc(OCCCCN2CCCC(C)C2)c([N+](=O)[O-])c1 (stereo unspecified)	inconclusive [inhibitor, single point]	

Structure (SMILES)	Potency	activity change, negative = inhibition
COc1ccc(OC)c(NC(=S)N(CCc2c(C)[nH]c3ccc(C)cc23)Cc2cccs2)c1	inconclusive [inhibitor, single point]	
COC(=O)C1=C(c2cc3ccccc3s2)C[C@@H]2CC[C@H]1N2C(=O)NCc1ccc(C(F)(F)F)cc1	active: 11.2 µM	
Cc1cccc(NC(=O)C2CCN(S(=O)(=O)c3c(C)c(C)cc(C)c3C)CC2)n1	inconclusive [inhibitor, full curve]	
Cc1ccc(C(OC(=O)c2ccco2)C(=O)NCc2cccs2)cc1 (stereo unspecified)		inactive: -0.781%
CCc1ccc(NC(=O)COc2ccc(/C=C(/C#N)c3nc4ccccc4[nH]3)cc2OC)cc1	inconclusive [inhibitor, full curve]	
Cc1ccc([N+](=O)[O-])cc1NC(=S)NC(=O)C(C)(C)C	inconclusive [inhibitor, full curve, poor fit]	
COc1ccc(/C=N/NC(=S)N[C@H]2CC3CCC2C3)cc1 (stereo partly specified)		inactive: -30.4%
CCOc1ccccc1OCC(=O)Nc1ccc2[nH]c(=O)[nH]c2c1	active: 12.6 µM	
CC(C)CN(CC(C)C)C(=O)CC(=O)NC(=O)c1ccc(Cl)cc1		inactive: 4.09%
Cc1onc(-c2ccccc2Cl)c1C(=O)Nc1cccc(S(=O)(=O)NC2=NCCC2)c1		inactive: 10.3%
O=C(CN1C(=O)NC(Cc2c[nH]c3ccccc23)C1=O)Nc1cccc(S(=O)(=O)N2CCCCCC2)c1 (stereo unspecified)	active: 10 µM	
Cc1ccc(S(=O)(=O)N2CCN(CC(=O)Nc3ccc4c(c3)CCC4)CC2)cc1C	inconclusive [inhibitor, single point]	
CCOC(=O)C1=C(C)Nc2sc(C(=O)c3ccc(Br)cc3)c(N)c2C1c1ccc(C(=O)OC)cc1 (stereo unspecified)	active: 8.91 µM	
O=S(=O)(Nc1nc2ccccc2nc1Nc1cccc(S(=O)(=O)N2CCCCC2)c1)c1ccccc1	inconclusive [inhibitor, single point]	
COCCCNC(=S)NNC(=S)Nc1ccc(OC)cc1		inactive: 18.3%
CC(C)c1nc2sc3c(NCc4ccco4)ncnc3c2c2c1COC(C)(C)C2	inconclusive [inhibitor, full curve, poor fit]	
CC(C)(C)c1ccc(O)c(O)c1	inconclusive [inhibitor, partial curve, poor fit]	
COc1ccc(-c2oc(=O)c3cc(OC)c(OC)cc3c2/C=C/c2ccc(F)cc2)cc1	inconclusive [inhibitor, full curve]	
COc1cc(NC(=O)CN2CCN(c3ccccc3F)CC2)cc(OC)c1	inconclusive [inhibitor, single point]	
Cc1ccc(S(=O)(=O)N2CCC(C(=O)NCCC3=CCCCC3)CC2)cc1C	inconclusive [inhibitor, single point]	
COc1ccc(C)cc1C1=CC(=O)C[C@H](c2ccc(F)cc2)C1	inconclusive [inhibitor, single point]	
Cc1ccc(S(=O)(=O)N2CCN(S(=O)(=O)c3cccs3)CC2)cc1		inactive: 23.1%
O=C(CSc1nnc(C2COc3ccccc3O2)o1)N1CCCc2ccccc21 (stereo unspecified)	inconclusive [inhibitor, partial curve]	
